Several values for one entry are separate records, joined by “and”; a condition that tells them apart may be missing. Equal entries are not always repeated. The whole screen tested about 150,000 compounds, of which about 6,500 (4.3%) were called active. Inconclusive means that the source gave no clear call. Such entries were picked first, then a sample of the others. The call rests on the fitted dose curve; in most records, active means well fitted inhibition curve with a large enough effect (not every such curve was filed as active); inconclusive means small, poorly fitted or top-dose-only effect, or another doubt; inactive means no such curve, though single readings can be large or run the other way. A potency beside an inconclusive call is a rough fit, not a confirmed value. A structure can be active in one record and inactive in another.
These compounds were tested against 15-hydroxyprostaglandin dehydrogenase [NAD(+)] (Homo sapiens) (UniProt P15428) (assay: qHTS Assay for Inhibitors of HPGD (15-Hydroxyprostaglandin Dehydrogenase)). Settings: purified HPGD, NADH fluorescence kinetic, PGE2 substrate; activity change, negative = inhibition: stronger effect = lower value.
How it was run: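 NADH formation kinetics: reaction with 30 uM PGE2 and 1 mM NAD+ (final), 20 nM enzyme, Tris-HCl pH 8 with Tween 20, after 15 min compound preincubation at room temperature. Fluorescence change, last versus first of five reads.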
On the % scale 0 is the no-effect control and ±100 the full control effect; potency means the concentration at half of the fitted maximal effect; tags describe the fitted curve by direction and shape.

Chain of UniProt P15428 (P15428 whole entry, looked up): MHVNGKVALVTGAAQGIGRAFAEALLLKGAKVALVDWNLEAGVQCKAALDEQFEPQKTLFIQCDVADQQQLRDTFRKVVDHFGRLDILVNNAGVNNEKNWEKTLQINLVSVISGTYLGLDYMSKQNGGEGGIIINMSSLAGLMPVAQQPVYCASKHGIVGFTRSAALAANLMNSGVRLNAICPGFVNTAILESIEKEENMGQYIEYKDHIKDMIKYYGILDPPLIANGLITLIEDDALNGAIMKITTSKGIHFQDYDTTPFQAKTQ

Activity change, negative = inhibition, inactive:
COc1ccc(C2C(C(=O)NCc3ccccn3)c3ccccc3C(=O)N2C)cc1OC (centres undefined) -14.6%
O=P(c1ccccc1)(c1ccccc1)C1CCCO1 (centres undefined) -5.34%
Cc1ccccc1NC(=O)NCCN1C(=O)C2C3C=CC(C3)C2C1=O (centres undefined) -8.09%
CCCCOC(=O)Nc1ccc(C(=O)OC)cc1 -23.2%
CN(C)Cc1ccccc1-c1nccc(NCc2cccs2)n1 2.4%
Cc1ccc2nc(SC(C(=O)c3ccccc3)c3ccccc3)nc(C)c2c1 (centres undefined) -11.2%
Cc1ccc(/C=N/Nc2nc3ccccc3s2)o1 -13.5%
Cc1ccc(C2NC(=O)Cc3ccccc32)cc1 (centres undefined) -16.1%
O=c1c(Cl)c(Nc2cccc(Cl)c2)cnn1-c1nc2ccccc2s1 -6.28%
Cc1ccc(C(=O)OCC(=O)NCCN2C(=O)CSC2=O)cc1 -2.75%
CCOC(C)=O -6.91%
O=C(O)c1ccc2c(c1)C(=O)N(NC(=O)c1ccc(O)cc1)C2=O -11%
Cc1ccc(S(=O)(=O)Nc2c(C)nn(C)c2C)cc1 -2.7%
COC(=O)c1ccc(NC(=O)CN2CCCC2)cc1 -11.4%
O=C(O)CCC(=O)NC1CCCCC1 -4.04%
Cc1ccccc1NC(=O)Cn1c([N+](=O)[O-])cnc1C -4.75%
CCCCC1CC1C(=O)Nc1ncc2c(n1)CC(C)(C)CC2=O (centres undefined) -10.9%
OCCCn1c(-c2ccccc2)nc(=S)c2c1CCCC2 -18.4%

Potency, inconclusive:
O=C(Oc1ccccc1)N1CCC2(CC1)CN(c1ncccn1)C2 25.1 µM [inhibitor, partial curve]
CCCCn1c2nc3ccccc3nc2c2c(=O)n(-c3ccccc3)cnc21 28.2 µM [inhibitor, partial curve]
CSc1nccc(-c2nn(-c3ccc(C)cc3)ccc2=O)n1 15.8 µM [inhibitor, partial curve]
CCC(=O)OCc1cc2cccc(C)c2[nH]c1=O 28.2 µM [inhibitor, partial curve]
CCOC(=O)c1c(NC(=O)COC(=O)CNC(=O)c2ccco2)sc(C(C)=O)c1C 22.4 µM [inhibitor, partial curve]
CC1CC(C(F)F)n2nc(C(=O)Nc3sc4c(c3C#N)CCC(C(C)(C)C)C4)nc2N1 (centres undefined) 25.1 µM [inhibitor, partial curve]
COc1ccc(OC)c(/C=N/NC(=O)CCc2ccc(O)c(O)c2)c1 28.2 µM [inhibitor, partial curve]
COc1cc(-c2nn3c(-c4ccccc4)nnc3s2)cc(OC)c1OC 14.1 µM [inhibitor, partial curve]
CCOC(=O)N1CCN(S(=O)(=O)c2cc(-c3nn4c(C)nnc4c4ccccc34)ccc2C)CC1 28.2 µM [inhibitor, partial curve]
Cc1cc(C(=O)OCC(=O)c2ccc(Br)s2)c(C)o1 22.4 µM [inhibitor, single point]
O=C(COc1ccccc1)N(Cc1cc2ccccc2[nH]c1=O)CC1CCCO1 (centres undefined) 28.2 µM [inhibitor, partial curve]
Cc1csc(-c2coc3cc(O)cc(C)c3c2=O)n1 22.4 µM [inhibitor, partial curve]
Cc1c(CNC(=O)c2nn3c(c2Cl)NC(c2ccccc2)CC3C(F)(F)F)cnn1C (centres undefined) 25.1 µM [inhibitor, single point]
CCOC(=O)CNc1c(-c2ccccc2)nc2ccc(Cl)cn12 28.2 µM [inhibitor, partial curve]
Cc1noc(C)c1-c1ccc2ncnc(NCc3ccccc3)c2c1 8.91 µM [inhibitor, partial curve]
C=CCOc1ccc(/C=N/NC(=O)CN(c2cc(Cl)ccc2OC)S(=O)(=O)c2ccc(C)c([N+](=O)[O-])c2)cc1 12.6 µM [inhibitor, partial curve]
Cc1ccc(S(=O)(=O)c2c(N)n(CCC(C)C)c3nc4ccccc4nc23)cc1 31.6 µM [inhibitor, partial curve]
Cc1ccc2nc(-c3ccc(NC(=O)c4ccco4)cc3)[nH]c2c1 25.1 µM [inhibitor, single point]
O=C(CSc1ncnc2c1oc1ccccc12)Nc1cccc(C(F)(F)F)c1 35.5 µM [inhibitor, partial curve]
O=C(CN1C(=O)NC2(CCCCCC2)C1=O)NCc1cccs1 14.1 µM [inhibitor, partial curve, poor fit]
Cc1nn(-c2ccccc2)c(N2CCCC2)c1/C=N/NC(=S)Nc1cc(C(F)(F)F)ccc1Cl 39.8 µM [inhibitor, single point]
O=C(Nc1ccc(N=Nc2ccccc2)c(NC(=O)C2CCCO2)c1)C1CCCO1 (centres undefined) 31.6 µM [inhibitor, single point]
CCCc1nc2oc3c(NCCOCCO)ncnc3c2c2c1COC(C)(C)C2 25.1 µM [inhibitor, partial curve]
Cc1cccc(CNc2cc(-c3ccc(N(C)C)cc3)ncn2)c1 3.55 µM [inhibitor, partial curve]
COC(=O)c1ccc(OCCOCCOc2cccc3ccc(C)nc23)cc1 22.4 µM [inhibitor, partial curve]
O=C(NC(=S)N1CCCCCC1)C1CC1 28.2 µM [inhibitor, partial curve]
COc1ccc(/C=C/C(=O)Oc2cccc(/C=N/NC(=O)c3cccc(F)c3)c2)cc1 22.4 µM [inhibitor, partial curve]
COc1ccc(OC)c(-c2cc(C(=O)N3CCN(c4ccccc4)CC3)no2)c1 28.2 µM [inhibitor, single point]
Clc1ccc(OCc2nn3c(-c4ccco4)nnc3s2)cc1 6.31 µM [inhibitor, full curve, poor fit]
CN1C(=O)/C(=C2/C=Cc3ccccc3N2CCCS(=O)(=O)O)SC1=S 28.2 µM [inhibitor, partial curve]
CCOC(=O)c1cnc2sccn2c1=O 28.2 µM [inhibitor, partial curve]
COc1ccc(C2CC(=O)c3cnc(N4CCN(Cc5ccccc5)CC4)nc3C2)cc1 (centres undefined) 35.5 µM [inhibitor, single point]
Cc1ccc(-c2nn(-c3ccccc3)cc2C2SCC(=O)N2Cc2ccccc2)o1 (centres undefined) 31.6 µM [inhibitor, partial curve]
CCOCC(=O)Nc1cccc(OC)c1 35.5 µM [inhibitor, partial curve, poor fit]
Cc1cccc(C2=NN(c3ccccc3)[C@H](CO)[C@H]2c2ccc(Cl)cc2)c1 31.6 µM [inhibitor, partial curve]
O=S(=O)(c1ccc(-c2csc(Nc3ccc(F)cc3)n2)cc1)N1CCCC1 28.2 µM [inhibitor, single point]
COCCn1nc2cc(C(=O)NCc3cc(C(F)(F)F)cc(C(F)(F)F)c3)ccc2c1OC 14.1 µM [inhibitor, partial curve]
COC(=O)CNS(=O)(=O)c1ccc(Cc2ccc(S(=O)(=O)NCC(=O)OC)cc2)cc1 28.2 µM [inhibitor, partial curve]
COC(=O)c1cc(OC)c(OC)cc1NC(=O)c1ccc(C)cc1 39.8 µM [inhibitor, single point]

Potency, active:
O=C(CCCOc1ccc(Cl)cc1)N1CCCCCC1 2.24 µM
O=C(NC(=S)Nc1ccccc1)c1cc(-c2ccccc2)nc2ccccc12 20 µM
COC1=C(Nc2ccc(C)cc2)C(=O)c2ccccc2C1=O 11.2 µM
CCOC(=O)Cc1csc(-n2sc3ccccc3c2=O)n1 1.41 µM
CC(C)C1S/C(=N/N=C/c2ccco2)NC1=O (centres undefined) 12.6 µM
C=C1CSc2nc(=O)c3c4c(sc3n21)CCCC4 14.1 µM
CC(C)CC(=O)Nc1ccc(-c2cn3ccsc3n2)cc1 25.1 µM
O=C(CCc1ccc(O)cc1)c1c(O)cc(O)cc1O 25.1 µM and 35.5 µM
Cc1nc(SCC(=O)c2cccs2)c2oc3ccccc3c2n1 12.6 µM
Cc1cc(C)n(CCOc2ccc(Cl)cc2Cl)n1 31.6 µM
N/C(=N\OC(=O)c1cccs1)c1ccccc1 31.6 µM
Cn1c(=O)[nH]c(=O)c2c1nc(SCCN1CCCCC1)n2Cc1ccccc1 25.1 µM
O=c1cc(-c2ccc(O)cc2)oc2ccc(O)cc12 20 µM
O=C1c2sc3nc4n(c(=O)c3c2CCC1Br)CCCCC4 (centres undefined) 12.6 µM
O=c1[nH]c2cc([N+](=O)[O-])c([N+](=O)[O-])cc2[nH]c1=O 31.6 µM
O=C1CC(Sc2nnc(-c3ccccc3)o2)C(=O)N1c1ccccc1 (centres undefined) 22.4 µM
N#Cc1cc(-c2ccccc2)nn1-c1ccccc1 12.6 µM

Reference: PubChem BioAssay AID894 (National Center for Advancing Translational Sciences (NCATS), 2007)
